Experimental data taken from US9393247B2, “Heteroaryl derivatives as alpha7 nAChR modulators” (Lupin Limited, priority 2011, dated 2016).
Some entries share one result that the patent states for a list of compounds.

Biological target: T1, α7nAChR (Homo sapiens, UniProt P36544)
T1 construct: human IMR-32 cells with native expression of α7nAChR; endogenous in cells; host or cells: IMR-32 (human neuroblastoma)
Experiment: Cell-based real-time kinetic FLIPR Ca2+ assay, potentiation of agonist response (fold PAM activity)
Details: 1 μM test compound, fold increase in response to agonist PNU-282987 (10 μM), human IMR-32 cells with native α7nAChR, intracellular Ca2+

T1 sequence (P36544 23-502): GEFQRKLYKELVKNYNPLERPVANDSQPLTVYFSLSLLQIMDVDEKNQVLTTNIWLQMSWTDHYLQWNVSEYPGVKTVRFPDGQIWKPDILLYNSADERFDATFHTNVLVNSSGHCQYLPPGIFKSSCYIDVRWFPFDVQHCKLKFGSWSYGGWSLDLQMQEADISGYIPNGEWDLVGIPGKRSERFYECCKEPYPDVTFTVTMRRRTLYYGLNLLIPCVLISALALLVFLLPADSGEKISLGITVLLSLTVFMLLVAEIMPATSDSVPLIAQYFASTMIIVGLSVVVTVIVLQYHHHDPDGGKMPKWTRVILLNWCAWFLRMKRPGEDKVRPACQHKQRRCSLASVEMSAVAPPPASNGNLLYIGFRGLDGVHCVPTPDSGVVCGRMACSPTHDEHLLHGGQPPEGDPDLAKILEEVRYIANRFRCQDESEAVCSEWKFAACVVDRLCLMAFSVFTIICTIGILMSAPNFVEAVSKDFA

SMILES	Fold activation at 1 μM conc. (Group)
CCC(=O)c1c(-c2ccc(S(N)(=O)=O)cc2)c(C)c(-c2ccc(Cl)cc2)n1CC [Compound 51, 4-(5-(4-chlorophenyl)-1-ethyl-4-methyl-2-propionyl-1H-pyrrol-3-yl)benzenesulfonamide]	B (the compounds with activity between 5.1 folds and 15 folds are grouped as B)
CCC(=O)c1c(-c2ccc(S(N)(=O)=O)cc2)c(C)c(-c2ccc(Cl)cc2)n1CC1CC1 [Compound 52, 4-(5-(4-Chlorophenyl)-1-(cyclopropylmethyl)-4-methyl-2-propionyl-1H-pyrrol-3-yl)benzene sulfonamide]	A (compounds with activity below 5 folds are grouped as A)
CCC(=O)c1[nH]c(-c2ccc(Cl)cc2)c(C)c1-c1ccc(S(N)(=O)=O)cc1 [Compound 53, 4-(5-(4-chlorophenyl)-4-methyl-2-propionyl-1H-pyrrol-3-yl)benzenesulfonamide]	A (compounds with activity below 5 folds are grouped as A)
CCC(=O)c1c(-c2ccc(S(N)(=O)=O)cc2)c(C)c(-c2ccc(F)cc2)n1C [Compound 54, 4-(5-(4-Fluorophenyl)-1,4-dimethyl-2-propionyl-1H-pyrrol-3-yl)benzene sulfonamide]	A (compounds with activity below 5 folds are grouped as A)
CCC(=O)c1c(-c2ccc(S(N)(=O)=O)cc2)c(C)c(-c2ccc(OC)cc2)n1C [Compound 55, 4-(5-(4-Methoxyphenyl)-1,4-dimethyl-2-propionyl-1H-pyrrol-3-yl)benzene sulfonamide]	B (the compounds with activity between 5.1 folds and 15 folds are grouped as B)
CCCC(=O)c1c(-c2ccc(S(N)(=O)=O)cc2)c(C)c(-c2ccc(Cl)cc2)n1C [Compound 56, 4-(2-butyryl-5-(4-chlorophenyl)-1,4-dimethyl-1H-pyrrol-3-yl)benzene sulfonamide]	B (the compounds with activity between 5.1 folds and 15 folds are grouped as B)
CCC(=O)c1c(-c2ccc(S(N)(=O)=O)cc2)c(C)c(-c2ccc(Cl)cc2Cl)n1C [Compound 57, 4-(5-(2,4-Dichlorophenyl)-1,4-dimethyl-2-propionyl-1H-pyrrol-3-yl)benzene sulfonamide]	A (compounds with activity below 5 folds are grouped as A)
CCC(=O)c1c(-c2ccc(S(N)(=O)=O)cc2)c(C)c(-c2ccc3c(c2)OCCO3)n1C [Compound 58, 4-(5-(2,3-Dihydrobenzo[b][1,4]dioxin-6-yl)-1,4-dimethyl-2-propionyl-1H-pyrrol-3-yl)benzene sulfonamide]	A (compounds with activity below 5 folds are grouped as A)
